Assay results: the RNAGym collection of RNA variant scans (doi:10.7554/elife.90254)
The source gives no read counts; variants with many changes may rest on few reads.

B1: OR4K15 (parent)
chain: GUUAACGGUCAUAGGCCAUGGAAACUAGGAGCACCAUUUCGCUGCCAGUGAAGAAAUGAACAAAGAAAAUCUGGGCCAGGCAGGCAUCAAAAGAAAUAGUCUUGCGCUCAACCAGAAAGUCUGUAAUCAUUUUAAGGGUA

Variants of: B1
Experiment: self-cleavage, relative activity (ratio to wild type); higher = more cleavage; in vitro, sequencing; the parent is a self-cleaving ribozyme

Variant	self-cleavage
GUUAACGGCCAUAGGCCAUGGGAACUAGGAGCACCAUUUCGCUGCCAGUGAAGAAAUGAACAAAGAAAAUCUGGGUCAGGCAGGCAUCAAAAGAAAUAGUCUUGCGCUCAACUAGAAAGUCUGUAAUCAUUUUAAGGGUA [U9C A22G C76U C113U]	0.05
GUUAACGGCCAUAGGCCAUGGAAUCUAGGAGCACCAUUCCGCUGCCAGUGAAGAAAUGAACAAAGAAAAUCUGGGCCAGGCAGGCAUCAAAAGGAAUAGUCUUGCGCUCGACCAGAAAGUCUGUAAUCAUUUUAAGGGUA [U9C A24U U39C A94G A110G]	0.15
GUUAACGGCCAUAGGCCAUGGAGACUAGGAGCACCAUUUCGCUGCCAGUGAAGAAAUGAACAAAGAGAAUCUGGGCCAGGCAGGCAUCAAAGGAAAUAGUCUUGCGCUCAACCAGAAAGUCUGUAAUCAUUUUAAGGGUA [U9C A23G A67G A92G]	0.72
GUUAACGGCCAUAGGCCAUGGAGACUAGGAGCACCAUUUCGCUGCCAGUGAAGAAAUGAACAAAGAAAUUCUGGGCCAGGCAGGCAUCAAAAGAAAUAGUCUUGCGCUCAACCAGAAAGUCUGUAAUCAUUUUAAGGGUA [U9C A23G A69U]	1.29
GUUAACGGCCAUAGGCCAUGGAAACUAGGUGCACCAUUUCGCUGCCAGUGAAGAAAUGAACAAAGAAAAUCUGGGCCGGGCAGGCAUCAAAAGAAAUAGUCUUGCGCUCAACCAGAAGGUCUGUAAUCAUUUUAAGGGUA [U9C A30U A78G A118G]	0.15
GUUAACGGCCAUAGGCCAUGGAAGCUAGGAGCACCAUUUCGCUGCCAGUGAAGAAAUGAACAAAGAAAAUCUGGGCCGGGCAGGCAUCAAAAGAAAUAGUCUUGCGCUCAACCAGAAAGUCUGUAAUCAUUUUAUGGGUA [U9C A24G A78G A135U]	0.63
GUUAACGGCCAUAGGCCAUGGAAACUAGGGGCACCAUUUCGCUGCCAGUGAAGAAAUGAACAAAGAAAAUCUGGGCCAGGCAGGCGCCGAAAGAAAUAGUCUUGCGCUCAACCAGAAAGUCUGUAAUCAUUUUAAGGGUA [U9C A30G A86G U87C A89G]	1.11
GUUAACGGCCAUAGGCCAUGGAAACUAGGGGCACCAUUUCGCUGCCAGUGAAGAAAUGAACAAAGAAAAUCUGGGCCAAGCAGGCAUCAAAAGAAAUAGUCUUGCGCUCAACCAGAAAGGCUGUAAUCAUUUUAAGGGUA [U9C A30G G79A U120G]	0.15
GUUAACGGCCAUAGGCCAUGGAAGCUAGGAGCACCAUUUCGCUGCCGGUGAAGAUAUGAACAAAGAAAAUCUGGGCCAGGCAGGCAUCAAAAGAAAUAGUCUUGCGCUCAACCAGAAAGUCUGUAAUCAUUAUAAGGGUA [U9C A24G A47G A55U U132A]	0.28
GUUAACGGCCAUAGGCCAUGGAGACUAGGAGCACCAUUUCGCUGCCAGUGGAGCAAUGAACAAAGAAAAUCAGGGCCAGGCAGGCAUCAAAAGAGAUAGUCUUGCGCUCGACCAGAAAGUCUGUAAUCAUUUUAAGGGUA [U9C A23G A51G A54C U72A A95G A110G]	0.09
GUUAACGGCCAUAGGCCAUGGAACCUAGGAGCACCAUUUCGCUGCCAGUGAAGAAAUGAACAAAGGAAAUCUGGGCCGGGCAGGCAACAAAAGAAAUAGUCUUGCGCUCAACCAGAAAGUCUGUAAUCGUUUUAAGGGUA [U9C A24C A66G A78G U87A A129G]	0.09
GUUAACGGCCAUAGGCCAUGGAAACUAGGGGCACCAUUUCGCUGCCAGUGAAGAAAUGAACAAAGAAAAUCUGGGCCAGGCAGGCAUCAAAAGAAGUAGUCUCGCGCUCAACCAGAAAGUCUGUAAUCAUUUUAAGGGUA [U9C A30G A96G U103C]	1.25
GUUAACGGCCAUAGGCCAUGGAAACUAGGGGCACCAUUUCGCUGCCUGUGAAGAAAUGAACAAAGAAAAUCUGGGCCAGGCAGGCAUCAAAAGAAAUAGUCUUGCGCUCAACCAGAAAGUCUGUAAUCAUUUUAAGGGUA [U9C A30G A47U]	0.68
GUUAACGGCCAUAGGCCAUGGGAACUAGGAGCACCAUUUCGCUGCCAGUGAAGAGAUGAACAAAGAAAAUCUGGGCCAGGCAGGCAUCAAAAGAAAUAGUCUUGCGCUCAACCAGAAAGUCUGUAAUCAUUUUAAGGGUA [U9C A22G A55G]	0.86
GUUAACGGCCAUAGGCCAUGGAGACUAGGAGCACCAUUUCGCUGCCGGUGAAGAAAUGAACAAAGUAAAUCUGGGCCAGGCAGGCAUCAAAAGAAAUAGUCUUGCGCUCAACCAGAAAGUCUGUAAUCAUUUUAAGGGUA [U9C A23G A47G A66U]	0.65
GUUAACGGCCAUAGGCCAUGGGAACUAGGUGCACCAUCUCGCUGCCAGUGAAGAAAUGAACAAAGAAAAUCUGGGCCAGGCAGGCAUCAAAAGAAAUAGUCUUGCGCUCAACCAGAAAGUCUGUAAUCAUUUUAAGGGUA [U9C A22G A30U U38C]	1.01
GUUAACGGCCAUAGGCCAUGGAAACUAGGAGCGCCGUUUCGCUGCCAGUGAAGAAAUGAACAAAGAAAAUCUGGGCCAGGCAGGCAUCAAAAGAAAUAGUCUUGCGCUCAACCAGAAAGUCUGUAAUCAUUUUAAGGGUA [U9C A33G A36G]	1.52
GUUAACGGCCAUAGGCCAUGGAAGCUAGGAGCACCAUUUCGCUGCCAGUGAAGAAGUGAACAAAGAAAAUCUGGGCCAGGCUGGCAUCAAAAGAAAUAGUCUUGCGCUCAACCAGAAAGUCUGUAAUCAUUUUAAGGGUA [U9C A24G A56G A82U]	0.67
GUUAACGGCCAUAGGCCAUGGAGACUAGGAGCACCAUUUCGCUGCCAGUGAAGAAAUGAACAAAGAAAAUCUGGGCCAGGCAGGCAUCAAAAGAAAUAGUCUUGCGCUCAACCAGAAAGUCUGUAAUCACUUUAAGGGUA [U9C A23G U130C]	0.83
GUUAACGGCCAUAGGCCAUGGAAACUAGGUGCACCAUUUCGCUGCCAGUGAAGAAAUGAAUAAAGAAAAUCUGGGCCAGGCAGGCAUCAAAAGAAAUAGUCUUGCGCUCAACCAGAAAGUCUGUAAUCAUUUUAAGGGUA [U9C A30U C61U]	1.32
